In PubChem BioAssay AID1963875 (Molecular Pharmacology Branch, DTP, NCI, 2024):
Some entries of the source have several records that differ or are many. The list is limited to them. The source may hold further records. The values listed for one entry are repeated measurements across runs, samples, wells, individuals or studies. Counts like (3×) say how often a value occurs here.

Tested on: KRAS-mutant PDC complex spheroid viability
Assay: Anticancer human tumor 186277-243-T-J2-PDC patient-derived colon adenocarcinoma cell line growth inhibition [KRAS2]
Conditions: for viability, T/C: stronger effect = lower value; for IC50: compound alone
Description: Multicellular complex tumor spheroid response to RAS pathway inhibitors in combination with a targeted agents in patient-derived cell lines with oncogenic KRAS variants from multiple cancer types
A high-throughput screen of multi-cell type tumor spheroids was designed to identify active combinations of targeted small molecules and KRAS pathway inhibitors. Complex spheroids include a stromal component modeled by human endothelial cells (HUVEC) and fibroblasts modeled by human mesenchymal stem cells (MSCs). The concentration ranges selected for each drug and investigational agent were based upon clinically achievable concentrations if the clinical Cmax of the agent was known.
Compounds. The drugs and investigational agents: BI-3406 (NSC825286), BAY-293 (NSC824723), batoprotafib (TNO155; NSC825523), sotorasib (AMG 510; NSC818433), MRTX1257 (NSC819558), elimusertib (BAY 1895344; NSC800525), molibresib (GSK525762; NSC774829), temuterkib (LY3214996; NSC803410), venetoclax (NSC766270), alisertib (NSC759677), olaparib (NSC753686), talazoparib (NSC767125), erdafitinib (NSC781556), ipatasertib (NSC767898), cabozantinib (NSC761068), nintedanib (NSC756659), abemaciclib (NSC768073), docetaxel (NSC628503), trametinib (NSC758246), and sapanisertib (NSC764658) were obtained from the National Cancer Institute (NCI) Developmental Therapeutics Program Chemical Repository. The FDA-approved anticancer drug set is available from the Developmental Therapeutics Program. […] The stock solutions were prepared in dimethyl sulfoxide (DMSO, Sigma-Aldrich, St. Louis, MO, cat. D2650) at 800-fold the tested concentration and stored at -70 degrees C prior to their use. All drugs and investigational agents were tested over a range starting from a high concentration at or near the clinical Cmax and decreasing in half-log increments. If the clinical Cmax for an agent had not been determined, the highest concentration tested was 10 microM.
Cell Culture. All cells were maintained in an incubator at 37 degrees C and 5% CO2 with 95% humidity. The PDC lines were cultured according to standard operating procedures established by the NCI PDMR (https://pdmr.cancer.gov/sops/default.htm). Briefly, all PDCs were thawed and cultured in Matrigel-coated flasks prepared with a working solution of 1X Ham's F-12 nutrient mix, without supplementation (Invitrogen, Waltham, MA, cat. 11765054), 100 U/mL penicillin-streptomycin (Invitrogen, cat. 15140122), and 2.5% Matrigel (Corning Inc., Corning, NY, cat. 354248) for the first three passages. All PDCs were cultured in complete DMEM/F-12 media containing advanced DMEM/F-12 (Invitrogen, cat. 12634028), 4.9% defined fetal bovine serum, heat inactivated (HyClone Laboratories Inc., Logan, UT, cat. SH30070.03HI), 389 ng/mL hydrocortisone (Sigma-Aldrich, cat. H4001), 9.7 ng/mL human EGF recombinant protein (Invitrogen, cat. PHG0313), 23.4 microg/mL adenine (Sigma-Aldrich, cat. A2786), 97.3 U/mL penicillin-streptomycin (Invitrogen, cat. 15140122), 1.9 mM L-glutamine (Invitrogen, cat. 25030081), and 9.7 microM Y-27632 dihydrochloride (Tocris Bioscience, Bristol, United Kingdom, cat. 1254). The PDCs were cultured in complete DMEM/F12 media without 9.7 microM Y-27632 dihydrochloride for at least two passages prior to the screen. The established cell line HOP-62 was cultured in RPMI 1640 medium, HEPES (Invitrogen, cat. 22400105) with 10% defined fetal bovine serum (HyClone Laboratories Inc., cat. SH30070.03) and 2 mM L-glutamine (Invitrogen, cat. 25030081). The pooled donor HUVEC were cultured in endothelial cell growth medium 2 (PromoCell, Heidelberg, Germany, cat. C-22011) and the hMSC were cultured in mesenchymal stem cell growth medium 2 (PromoCell, cat. C-28009). For all experiments, HUVEC and hMSC were used at passages </=5, while the malignant cell lines were used at passages </=15. […]
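Wherever viability, T/C is given: viability read after seven days of compound exposure; 100% = DMSO vehicle-treated spheroids so lower means less viable.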

In the case of COC(=O)c1ccc2c(C(=Nc3ccc(N(C)C(=O)CN4CCN(C)CC4)cc3)c3ccccc3)c(O)[nH]c2c1, the viability, T/C (compound alone 3.16 µM) is reported as 45.5, 25, 27.5, 72.5, 53%.
With CC(C)NCC(C(=O)N1CCN(c2ncnc3c2C(C)CC3O)CC1)c1ccc(Cl)cc1 (stereo not drawn) the viability, T/C (compound alone 3.16 µM) was 23.5, 23, 31, 3.34, 27%.
In the case of CC1COCCN1c1cc(-c2ccnn2C)c2ccnc(-c3ccn[nH]3)c2n1 (stereo not drawn), the IC50 is reported as 21.3 nM, 20.6 nM, 23.1 nM, < 10 nM, 21.5 nM and the viability, T/C (compound alone 0.01 µM) is reported as 89.8, 88.6, 96.9, 11.1, 89.1%.
For CCN1CCN(Cc2ccc(Nc3ncc(F)c(-c4cc(F)c5nc(C)n(C(C)C)c5c4)n3)nc2)CC1, the viability, T/C (compound alone 0.316 µM) was 146, 135, 174, 132%.
With CN(C)C/C=C/C(=O)Nc1cc2c(Nc3ccc(F)c(Cl)c3)ncnc2cc1O[C@H]1CCOC1 the viability, T/C (compound alone 0.001 µM) was 116, 96.7, 115, 97.4, 86.5%.
For COc1cc2nccc(Oc3ccc(NC(=O)C4(C(=O)Nc5ccc(F)cc5)CC4)cc3)c2cc1OC, the viability, T/C (compound alone 1 µM) was 106, 96, 116, 18.2, 105% and the viability, T/C (compound alone 10 µM) was 13.5, 14.2, 14.5, 96.8, 17.9%.
With Cn1nccc1Nc1nccc(-c2cc3c(s2)C(C)(C)N(CCN2CCOCC2)C3=O)n1 the viability, T/C (compound alone 0.316 µM) was 55.9, 58.1, 75.2, 57, 50.1%.
With CC1OCC2(CCN(c3cnc(Sc4ccnc(N)c4Cl)c(N)n3)CC2)C1N (stereo not drawn) the viability, T/C (compound alone 0.316 µM) was 114, 98.2, 122, 104 (3×), 103 (4×), 106, 116 (2×), 115, 109, 107, 98.4, 100, 94.9%, the viability, T/C (compound alone 1 µM) was 89.5, 100 (2×), 101 (3×), 118, 98.4 (2×), 110, 97.6, 116, 109, 108, 98.8, 93.7, 104, 92.2, 96.7% and the viability, T/C (compound alone 3.16 µM) was 47, 106, 95.2, 97.4, 86.8, 95.6, 84.2, 89.1, 102 (2×), 86.3, 83.5, 99.2, 111 (2×), 97.1, 97.7, 101, 87.8, 96.2%. For the same molecule, the viability, T/C (compound alone 10 µM) was 87.1, 91.4, 71, 90, 60, 55.5, 37.9, 69.8, 85.6, 72.9, 83.3, 126, 116, 106 (2×), 123, 101, 127, 107, 99.8%.
CCNC(=O)CC1N=C(c2ccc(Cl)cc2)c2cc(OC)ccc2-n2c(C)nnc21 (stereo not drawn) was tested, and the viability, T/C (compound alone 0.316 µM) was 104, 130, 136, 120, 132%, the viability, T/C (compound alone 1 µM) was 168, 171, 167, 107, 153% and the viability, T/C (compound alone 3.16 µM) was 140, 145, 136, 84.2, 121%. For the same molecule, the viability, T/C (compound alone 10 µM) was 113, 130, 111, 18.9, 95.2%.
For CC(=O)Nc1cccc(-n2c(=O)n(C3CC3)c(=O)c3c(Nc4ccc(I)cc4F)n(C)c(=O)c(C)c32)c1, the viability, T/C (compound alone 0.000316 µM) was 101, 111, 85.3, 105, 78.4%.
With O=C(c1cc(Cc2n[nH]c(=O)c3ccccc23)ccc1F)N1CCN(C(=O)C2CC2)CC1 the IC50 was 2.02, 2.16, 7.82, 8.44, 8.12 µM, the viability, T/C (compound alone 1 µM) was 79.3, 75.4, 107, 95.9, 108% and the viability, T/C (compound alone 3.16 µM) was 31.5, 38.9, 85.9, 103, 83%.
With CNCc1ccccc1-c1csc(C(C)Nc2nc(C)nc3cc(OC)c(OC)cc23)c1 (stereo not drawn) the viability, T/C (compound alone 1 µM) was 99.2, 97.4, 104, 96.6, 107 (2×), 95.2, 113, 106 (2×), 115, 103, 86.8, 90.8, 90.1, 84.2, 96.8% and the viability, T/C (compound alone 3.16 µM) was 105, 103, 97.8, 22.6, 96.6, 54.8, 26.4, 19, 32.5, 24.7, 51.6, 75.8, 87.2, 78.8, 84.3, 70.3, 93.1%.
C=CC(=O)N1CCN(c2nc(OCC3CCCN3C)nc3c2CCN(c2cccc4cccc(C)c24)C3)CC1CC#N (stereo not drawn) was tested, and the viability, T/C (compound alone 0.1 µM) was 83.9, 102, 107, 97.8, 97.3, 98.2, 111, 94.5, 104 (2×), 106, 98.4, 100, 101, 103, 105%, the viability, T/C (compound alone 0.316 µM) was 101 (3×), 104 (3×), 96.2, 81.2, 98.1, 95.4, 102 (2×), 98.5, 106, 96.9, 112% and the viability, T/C (compound alone 1 µM) was 87.7, 103, 102, 90.6, 90.8, 90.3, 97.7, 108, 114, 107, 110, 99.8, 89.5, 91, 82.9, 98.7%. The viability, T/C (compound alone 3.16 µM) was 93.5, 0.29, 0.37, 0.35, 0.19, 0.18, 0.25, 0.2, 0.21, 2.96, 6.07, 6.56, 1.81, 2.15% and the IC50 (run of 07/12/2021) was > 3.16 µM, 1.79 µM, 1.8 µM, 1.67 µM, 1.68 µM.
In the case of COc1cc(OC)cc(N(CCNC(C)C)c2ccc3ncc(-c4cnn(C)c4)nc3c2)c1, the IC50 is reported as 6.23 µM, 6.32 µM, 6.93 µM, 262 nM, 6.27 µM, the viability, T/C (compound alone 0.316 µM) is reported as 106 (2×), 104, 39.5, 92.1% and the viability, T/C (compound alone 1 µM) is reported as 99.4, 101, 95.2, 0.64, 98.4%. The viability, T/C (compound alone 3.16 µM) was 90.3, 89.7, 104, 1.02, 95.3% and the viability, T/C (compound alone 10 µM) was 23, 23.6, 25.6, 0.04, 19.1%.
In the case of COc1cc2nc(C)nc(NC(C)c3cc(N)cc(C(F)(F)F)c3)c2cc1OC1CCOC1 (stereo not drawn), the viability, T/C (compound alone 0.1 µM) is reported as 106, 101, 103 (2×), 93, 90.3, 85.8, 102, 86.5, 108, 85, 107, 98.4, 21.5, 9.66, 86.7, 97.3%, the viability, T/C (compound alone 0.316 µM) is reported as 108, 102, 98, 96.6, 94.3, 98.6, 109, 96.9, 107, 97.9, 95, 98.5, 97.4, 65.8, 93.4, 97.2, 96.1% and the viability, T/C (compound alone 3.16 µM) is reported as 104 (2×), 89.5, 103, 87.5, 105, 95.8, 112, 117, 95.1, 106, 82.3, 90.3, 100, 95.6, 79.5, 84.8%. The viability, T/C (compound alone 10 µM) was 107, 104, 93.8, 67.7, 63.6, 50.2, 84.2, 94.1, 67.1, 82.8, 73, 97.1, 102, 101, 110, 95.3, 93.5% and the IC50 (run of 07/26/2021) was > 10 µM and < 100 nM.
